# In all, about 310,000 compounds went through this assay and about 11,000 (3.5%) were called active. The inconclusive results got no clear call from the source; some entries with a clear call stand among them for comparison. The call rests on the fitted dose curve; in most records, active means well fitted inhibition curve with a large enough effect; inconclusive means small, poorly fitted or top-dose-only effect, or effect the other way; inactive means flat fitted curve, though single readings scatter. No potency is given beside an inconclusive call; the fits are too rough.
# Test: VP16 counterscreen qHTS for inhibitors of ROR gamma transcriptional activity;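 further: Gal4-VP16 expression switched on by copper sulfate through the metallothionein promoter; nearly all actives have a fitted effect of over 50% in size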
# Conditions: Drosophila S2 Gal4-VP16 UAS-luciferase, luminescence, 20 h; activity, negative = inhibition: at 53.6 µM (top of the series)
# On the % scale 0 is the no-effect control and ±100 the full control effect; potency means the concentration at half of the fitted maximal effect; tags describe the fitted curve by direction and shape.
SMILES,"activity, negative = inhibition",Potency
COc1cc(C(=O)Nc2cccc(-c3nc4ncccc4o3)c2C)cc(OC)c1OC,inactive: 1.31%,
Fc1ccc(C2=NN(c3ccccc3)C(c3ccco3)C2)cc1 (centres undefined),,"inconclusive [activator, single point]"
N#C/C(=C\c1c(N(Cc2ccccc2)Cc2ccccc2)nc2ccccn2c1=O)C(N)=O,,active: 7.08 µM
CCCC1CCC(c2ccc(C(=O)NN)cc2)CC1 (centres undefined),,"inconclusive [inhibitor, single point]"
CC(C)Oc1cccc(C(=O)NC(=S)Nc2cccc(C(F)(F)F)c2)c1,,"inconclusive [inhibitor, single point]"
Cc1cc(C)c2cc(C(=O)Nc3ccc4c(c3)OCO4)[nH]c2c1,,"inconclusive [inhibitor, partial curve]"
O=C(C1CCN(c2nnc(-n3cccc3)s2)CC1)N1CCN(c2cccc(C(F)(F)F)c2)CC1,,"inconclusive [inhibitor, single point]"
CCn1c(Cn2nnc(-c3ccccc3)n2)nnc1SCC(=O)N1CCOCC1,inactive: 5.11%,
CC(=O)N1c2ccc(S(=O)(=O)N3CCCC3)cc2CC1C(=O)Nc1cc(C)cc(C)c1 (centres undefined),inactive: -26.3%,
COC(=O)CNC(=O)C1CCCN1C(=O)CNC(=O)OC(C)(C)C (centres undefined),,"inconclusive [activator, partial curve]"
Cc1cc(/C=N/NC(=O)Cn2c3ccccc3c(=O)c3ccccc32)c(C)n1-c1ccc(Cl)cc1,inactive: 0.422%,
Cc1ccc(S(=O)(=O)N2CCN(CC(=O)N/N=C/c3ccc(Br)s3)CC2)cc1,,"inconclusive [inhibitor, single point]"
CCOc1cccc(-c2cc(C(=O)N/N=C/c3ccc(OC)c(CN4CCOCC4)c3)c3ccccc3n2)c1,,"inconclusive [inhibitor, single point]"
C=CCn1c(CSc2nc3ccccc3s2)nnc1SCC(=O)NCc1ccccc1,,"inconclusive [inhibitor, single point]"
COc1ccc(NC(=S)NCCc2c[nH]c3ccccc23)cc1,,active: 12.6 µM
CCn1nnc(NC(=O)CSc2ccc(Cl)cc2)n1,inactive: 10.5%,
CC(C)Sc1nc(NCc2ccco2)c2c3c(sc2n1)COC(C)(C)C3,,"inconclusive [activator, single point]"
CC(C)Nc1cc(C(F)(F)F)nc(-c2ccccn2)n1,,active: 6.31 µM
O=C(NCCNc1ccc(Cl)cc1[N+](=O)[O-])c1cccnc1,,"inconclusive [inhibitor, single point]"
O=[N+]([O-])c1cccc(NC(=S)NCCc2ccccc2)c1,,"inconclusive [inhibitor, full curve]"
COc1cccc(N=Nc2ccc3ccccc3c2O)c1,,"inconclusive [inhibitor, partial curve]"
COc1ccccc1NC(=O)C1=C(C)Nc2nc3ccccc3n2C1c1cccs1 (centres undefined),,"inconclusive [inhibitor, single point]"
Cc1ccc2oc(/N=C(\N)NC(=O)C3CC3)nc2c1,,"inconclusive [inhibitor, single point]"
Cc1cc(C)nc(NC(=O)c2ccc(COc3ccccc3Cl)cc2)c1,inactive: -0.0399%,
O=C(/C=C/c1ccccc1Cl)c1ccc(O)cc1,,"inconclusive [inhibitor, partial curve]"

SMILES,"activity, negative = inhibition",Potency
Cc1ccc(-c2nc(C(=O)NCCCN(C)C)cc3c2[nH]c2ccccc23)cc1,,"inconclusive [inhibitor, single point]"
O=C(Nc1ncnc2c1ncn2C1OC(COC(=O)c2ccccc2)C(F)C1O)c1ccccc1 (centres undefined),,active: 11.2 µM
COc1ccccc1CN=Cc1[nH]c2ccc(Br)c(Cl)c2c1O,,active: 11.2 µM
Cc1ccn2c(Nc3ccccc3C)c(-c3ccccn3)nc2c1,,"inconclusive [inhibitor, single point]"
Nc1ccc(NC(=O)NC2CCCCC2)cc1[N+](=O)[O-],inactive: 5.17%,
CN1N=C(C(F)(F)F)CC1=O,inactive: 0.818%,
CN(c1ccccc1)c1nc(N2CCCC2)nc(-n2ccnc2)n1,,active: 11.2 µM
O=C(CN(C(=O)CCC(=O)Nc1ccccn1)c1cccc(F)c1)NCc1ccco1,inactive: 3.91%,
COc1ccc(-n2c(C)cc(C(=O)CCl)c2C)cc1,,"inconclusive [inhibitor, single point]"
COc1ccc(NC(=S)NN(C)C(=S)Nc2ccc(OC)cc2)cc1,,"inconclusive [inhibitor, single point]"
CCCCOC(=O)Nc1ccc(N(C)C)cc1,,"inconclusive [inhibitor, partial curve]"
CC1CC(C)CN(S(=O)(=O)c2ccc(C(=O)Nc3nnc(-c4cccs4)o3)cc2)C1 (centres undefined),,active: 0.501 µM
CCc1ccc(OCC(=O)NNC(=O)c2cnccn2)c(Br)c1,,active: 6.31 µM
CC/C(=N\NC(=O)c1ccccc1Cl)c1ccc(Br)s1,,"inconclusive [inhibitor, single point]"
CCOC(=O)COc1ccc(-c2nnc(-c3ccccc3)o2)cc1,,"inconclusive [inhibitor, single point]"
Cc1[nH]c2ccccc2c1C(=O)C(=O)Nc1ccc2c(c1)OCCO2,,"inconclusive [activator, partial curve, poor fit]"
COC(=O)c1ccccc1Oc1ccc(NC(=O)C(C)(C)CCl)cc1,inactive: 9.96%,
O=C(Nc1ccc2c(c1)OCCO2)c1ccco1,,"inconclusive [inhibitor, single point]"
COc1ccccc1/C=C/C=N/N1CCN(Cc2ccccc2)CC1,,"inconclusive [activator, single point]"
NS(=O)(=O)c1ccc(CCNC(=O)CNS(=O)(=O)c2cccc(Br)c2)cc1,,"inconclusive [inhibitor, single point]"
Cc1cc(NC(=O)NC(C(F)(F)F)C(F)(F)F)no1,inactive: 6.98%,
O=C(CSC1CC(=O)N(c2ccc(C(=O)O)cc2)C1=O)Nc1ccc2ccccc2c1 (centres undefined),inactive: 3.81%,
CSCc1cc(N2CCOCC2)nc(SCc2ccc(Cl)cc2Cl)n1,,"inconclusive [inhibitor, single point]"
CCOC(=O)c1c(OCC)[nH]c2c1cc(O)c1ccccc12,,"inconclusive [inhibitor, single point]"
CC(Nc1ncnc2ccccc12)c1ccccc1 (centres undefined),,active: 2.82 µM

SMILES,"activity, negative = inhibition",Potency
COc1cccc(C(=O)Nc2cccc(NC(=O)c3ccccc3Cl)c2)c1,inactive: 0.585%,
CCC(=O)Nc1ccc2oc(-c3cccc(C)c3)nc2c1,,active: 2.24 µM
CCCCCc1cc(=O)oc2c(C(CCN3CCCCC3)c3cc(OC)c(OC)c(OC)c3)c(OC)cc(OC)c12 (centres undefined),,"inconclusive [inhibitor, single point]"
COC(=O)CSc1nnc(SCc2ccccc2)s1,,"inconclusive [inhibitor, partial curve]"
Cc1ccc(CN(C)C(=O)C2CCC(=O)N(CCc3ccccc3)C2)o1 (centres undefined),,"inconclusive [inhibitor, partial curve]"
CC(C)(C)NC(=O)CSc1nc2ccc(NC(=O)CSc3nnc(N)s3)cc2s1,,"inconclusive [inhibitor, single point]"
CC(CCc1ccccc1)NC(=O)CCCn1ncn2c(cc3occc32)c1=O (centres undefined),inactive: -1.75%,
CCn1ncc(S(=O)(=O)Nc2cc(Cl)ccc2C)c1C,inactive: -1.24%,
CCOC(=O)CCCc1ccc(/C(C)=N/NC(=S)NC)cc1,,"inconclusive [inhibitor, single point]"
O=C(CCN1C(=O)/C(=C/c2cccs2)SC1=S)N1CCCCC1,,"inconclusive [inhibitor, partial curve]"
Cc1ccccc1OCC(=O)N/N=C/c1cccc2cccnc12,,active: 14.1 µM
Cc1cc(N2CCCC(C(=O)Nc3ccc4c(c3)CCC4)C2)n2ncnc2n1 (centres undefined),inactive: -4%,
NC(=S)N/N=C1\CC(c2ccc3c(c2)OCCCO3)Oc2ccc(F)cc21 (centres undefined),,active: 0.562 µM
COc1ccc(C(=O)/C=C/c2cn(CC(O)CN3CCN(C)CC3)c3ccccc23)cc1OC (centres undefined),inactive: 7%,
CCOC(=O)N1CCC(=NNC(=O)c2ccc(O)cc2)CC1,,"inconclusive [inhibitor, single point]"
O=C(NCc1cccc(F)c1)c1noc2c1CCCC2,,"inconclusive [inhibitor, partial curve, poor fit]"
Cc1ccc(-n2cc(CN3CCN(c4ccccn4)CC3)c(-c3ccc(F)cc3)n2)cc1,,"inconclusive [inhibitor, partial curve, poor fit]"
Cc1ccc(CN2CCN(/N=C\C(Br)=C\c3ccccc3)CC2)cc1,,"inconclusive [inhibitor, single point]"
Cc1nc(SCc2ccc(Cl)c(Cl)c2)ncc1C(=O)O,inactive: -12.3%,
Cc1ccc(CC2CC(=O)N(c3nc4ccccc4n3C)C2=O)cc1 (centres undefined),,"inconclusive [inhibitor, single point]"
O=S(=O)(NCCCCCNS(=O)(=O)c1ccc(F)cc1)c1ccc(F)cc1,inactive: 0.224%,
O=[N+]([O-])c1c(NCCCO)cc(N2CCCCCC2)c2nonc12,,"inconclusive [inhibitor, single point]"
Cc1cccc(NC(=O)CCC(=O)N/N=C/c2ccncc2)c1,,"inconclusive [activator, single point]"
Cc1ccc(N2C(=O)C(Cc3ccccc3)NC2=S)cc1 (centres undefined),,"inconclusive [inhibitor, single point]"

# — PubChem BioAssay AID2546 (National Center for Advancing Translational Sciences (NCATS), 2010)
